{"source": "the RNAGym collection of RNA variant scans (doi:10.1093/nar/gkz1192)", "parents": {"B1": {"name": "CPEB3 Ribozyme (parent)", "chain": "UAACAGGGGGCCACAGCAGAAGCGUUCACGUCGCAGCCCCUGUCAGAUUCUGGUGAAUCUGCGAAUUCUGCUGUAUAUCUC"}}, "note": "Read counts are not given, so values of variants with three or more changes are uncertain."}
{"variants_of": "B1", "experiment": "self-cleavage, relative activity (ratio to wild type); higher = more cleavage; in vitro, sequencing", "how_it_was_run": "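After error-prone PCR and barcoding, CPEB3 ribozyme mutant libraries were transcribed with T7 RNA polymerase at 37°C for 5 hours, then given 15 min with DNase I before an EDTA stop, and they cleaved during both steps. Reverse transcription with template switching preceded Illumina sequencing. Relative activity divides a variant's cleaved/total read fraction by the unmutated ribozyme's. At least 5 reads were required per variant, and three batches were averaged.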"}
{"variant": "A15G U69C U74C U80C", "self-cleavage": 0.19}
{"variant": "A15G U74A U78A U80C", "self-cleavage": 1.18}
{"variant": "A15G U76C U78A", "self-cleavage": 1.13}
{"variant": "A15G U78C U80A", "self-cleavage": 1.08}
{"variant": "A15U A18C A35G", "self-cleavage": 0.49}
{"variant": "A15U A18C A35U", "self-cleavage": 0.32}
{"variant": "A15U A18C U43C U74A", "self-cleavage": 0.1}
{"variant": "A15U A18G A28U", "self-cleavage": 0.12}
{"variant": "A15U A18G A35G A56U", "self-cleavage": 0.34}
{"variant": "A15U A18G A56U", "self-cleavage": 0.19}
{"variant": "A15U A18G C59U A64G U66C", "self-cleavage": 0.13}
{"variant": "A15U A18G G33C A56G A77G", "self-cleavage": 0.03}
{"variant": "A15U A18G U25C C27A A28U A64G G73A", "self-cleavage": 0.25}
{"variant": "A15U A18G U26A A45G", "self-cleavage": 0.09}
{"variant": "A15U A18G U26A G52A", "self-cleavage": 0.13}
{"variant": "A15U A18G U49C U60C U67C", "self-cleavage": 0.07}
{"variant": "A15U A18G U51C A64G", "self-cleavage": 0.12}
{"variant": "A15U A18G U60C", "self-cleavage": 0.17}
{"variant": "A15U A18G U67A A75U", "self-cleavage": 0.19}
{"variant": "A15U A18G U69C G70U U78C", "self-cleavage": 0.1}
{"variant": "A15U A18U A28G A47U U49C U69C C71U", "self-cleavage": 0.07}
{"variant": "A15U A18U C38G U49C C62A U78A", "self-cleavage": 0.04}
{"variant": "A15U A18U C44A A75G", "self-cleavage": 0.03}
{"variant": "A15U A18U U26C G30U", "self-cleavage": 0.17}
{"variant": "A15U A18U U31G G53A U60A", "self-cleavage": 0.05}
{"variant": "A15U A20G A21G G36C A45G A57C", "self-cleavage": 0.06}
{"variant": "A15U A20G A21G U31A", "self-cleavage": 0.13}
{"variant": "A15U A20G A28G A35U U41A U43A", "self-cleavage": 0.43}
{"variant": "A15U A20G A35U U41A U54C A65G U72A", "self-cleavage": 0.13}
{"variant": "A15U A20G U41A U49C", "self-cleavage": 0.23}
{"variant": "A15U A20G U43C U51G U72A", "self-cleavage": 0.44}
{"variant": "A15U A20G U51C U69C U76A", "self-cleavage": 0.17}
{"variant": "A15U A20U C34U A45G U60C U66C", "self-cleavage": 0.05}
{"variant": "A15U A20U U58C C68A", "self-cleavage": 0.06}
{"variant": "A15U A21G A35G U51C U54C A57G C79U", "self-cleavage": 0.42}
{"variant": "A15U A21G A47U", "self-cleavage": 0.42}
{"variant": "A15U A21G A56G U60C U67C", "self-cleavage": 0.08}
{"variant": "A15U A21G A56G U69C", "self-cleavage": 0.24}
{"variant": "A15U A21G C27G U54G U60A", "self-cleavage": 0.14}
{"variant": "A15U A21G U25A U49C", "self-cleavage": 0.16}
{"variant": "A15U A21G U26C U48C A64U A77G", "self-cleavage": 0.17}
{"variant": "A15U A21G U43A U48A", "self-cleavage": 0.09}
{"variant": "A15U A28C U60C U78C", "self-cleavage": 0.1}
{"variant": "A15U A28G A47G G73U", "self-cleavage": 0.3}
{"variant": "A15U A28G C34G U54C", "self-cleavage": 0.16}
{"variant": "A15U A28G C37U A45G A47G G52C", "self-cleavage": 0.04}
{"variant": "A15U A28G U31A U41A", "self-cleavage": 0.38}
{"variant": "A15U A28U U41C U67C U72C U80A", "self-cleavage": 0.1}
{"variant": "A15U A35G C39A U72C", "self-cleavage": 0.93}
{"variant": "A15U A35G U41A", "self-cleavage": 0.32}
{"variant": "A15U A35G U41A A57G A64U U66C", "self-cleavage": 0.07}
{"variant": "A15U A35G U41A U69A", "self-cleavage": 0.14}
{"variant": "A15U A35G U43A A45G U69C U76G", "self-cleavage": 0.25}
{"variant": "A15U A35U A45G G55A C62U A65C", "self-cleavage": 0.37}
{"variant": "A15U A35U U67C", "self-cleavage": 0.16}
{"variant": "A15U A35U U72C A75G", "self-cleavage": 0.74}
{"variant": "A15U A45C U58C", "self-cleavage": 0.07}
{"variant": "A15U A45C U72A", "self-cleavage": 0.2}
{"variant": "A15U A45G U49C U51A A57G", "self-cleavage": 0.09}
{"variant": "A15U A45G U54C U58G U72C", "self-cleavage": 0.09}
{"variant": "A15U A45G U78C", "self-cleavage": 0.51}
{"variant": "A15U A45U A77U", "self-cleavage": 0.33}
{"variant": "A15U A45U U49C U72C", "self-cleavage": 0.08}
{"variant": "A15U A56C U58C U69C A75G U76C", "self-cleavage": 0.42}
{"variant": "A15U A56G A65G", "self-cleavage": 0.19}
{"variant": "A15U A56G U76G", "self-cleavage": 0.86}
{"variant": "A15U A56G U78C", "self-cleavage": 0.45}
{"variant": "A15U A57G A77G", "self-cleavage": 0.49}
{"variant": "A15U A64G U69A G70C U78A", "self-cleavage": 0.13}
{"variant": "A15U A64U A65G U72C", "self-cleavage": 0.23}
{"variant": "A15U A64U A77G", "self-cleavage": 0.14}
{"variant": "A15U A64U U74A", "self-cleavage": 0.15}
{"variant": "A15U C23U C44U U49A U60A", "self-cleavage": 0.13}
{"variant": "A15U C29G U31A U49C A65U U67A U78C", "self-cleavage": 0.06}
{"variant": "A15U C32U U43A A77U", "self-cleavage": 0.55}
{"variant": "A15U C34G C79U", "self-cleavage": 0.33}
{"variant": "A15U C37G U80C", "self-cleavage": 0.59}
{"variant": "A15U C37U U41C U48C", "self-cleavage": 0.4}
{"variant": "A15U C38A U48C U69C", "self-cleavage": 0.05}
{"variant": "A15U C38U A56U", "self-cleavage": 0.31}
{"variant": "A15U C38U U72C", "self-cleavage": 0.69}
{"variant": "A15U C39U A57U U66G", "self-cleavage": 0.15}
{"variant": "A15U C39U U67C U78A", "self-cleavage": 0.21}
{"variant": "A15U C40U G63A A75G U80C", "self-cleavage": 0.15}
